The results in this text go back to ChEMBL document CHEMBL1201862, “PubChem BioAssay data set” (2004).

Molecules are shown by their SMILES.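 Five concentrations, 48 hours, 96-well plates. GI50 marks 50% less growth.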 Active and inactive are the calls of the source. Cut-off read from the data, not from the text of the source: active = GI50 up to about 1.1 µM and inactive = higher. Where only a bound is given, the exact number is not on record here.

The test has as its system NCI-H322M. The experiment in a line: NCI tumour cell line growth inhibition, 48 h.
Take `CC(=O)c1sc2c(c1OC(=O)c1ccc(Cl)cc1Cl)c(=O)n(-c1ccccc1)c(=S)n2-c1ccccc1`: the GI50 is active: 0.769 µM.

For the compound `Cc1cc2c(=Cc3ccc(N(C)C)cc3)c3ccccc3n2[n+]1C`, the GI50 was inactive: 1.5 µM.

`COc1ccc(NC2Oc3cc4c(cc3C(c3cc(OC)c(OC)c(OC)c3)C2C)OCO4)cc1` (configuration not stated): the GI50 is active: 0.343 µM.

As for `CCCC(=O)NC(C(=O)OCC)(N1CCOCC1)C(F)(F)F` (configuration not stated), the GI50 was inactive: > 100 µM.

Turning to `COc1cc(NS(C)(=O)=O)ccc1Nc1c2ccccc2nc2c1[nH]c1ccc(NC3OC(CO)C(O)C(O)C3O)cc12` (configuration not stated), the GI50 was active: 0.424 µM.

As to `O=S(=O)(NCn1ccc2ccccc21)c1ccccc1`, the GI50 is inactive: > 100 µM.

For the compound `COc1ccc(Nc2nc3ccccc3nc2-c2cccs2)cc1OC`, the GI50 is inactive: > 10 µM.

Consider `O=[N+]([O-])c1ccc(Sc2c3ccccc3nc3ccccc23)cn1`, for which the GI50 is inactive: 29.5 µM.

Take `CCCCCCCCCCCCCCCCCCNC(=S)NC=C1C(=O)c2ccccc2C1=O`: the GI50 was inactive: 9.57 µM.

Regarding `C/C(=N\NC(=O)CC(=O)Nc1ccc(Cl)cc1)c1cc2ccccc2oc1=O`, the GI50 was inactive: > 100 µM.

With `O=[N+]([O-])c1ccc(-c2ccc(C3=Nn4c(CNc5ccccc5Cl)nnc4SC3)o2)cc1`, the GI50 was inactive: > 100 µM.

For the compound `COC(=O)/C=C/c1cnc2c(c1)oc(=O)n2C`, the GI50 is inactive: > 100 µM.

In the case of `S=C1Cc2c(-c3ccccc3)cc(-c3ccc(Cl)cc3)nc2-c2ccccc2N1`, the GI50 is inactive: 2.11 µM.

`COc1cc(C)c2c(=O)c3ccccc3n(C)c2c1`: the GI50 is inactive: 42.3 µM.

As to `O=C1O/C(=C\c2ccc(O)cc2)C(c2ccc(O)c(Cl)c2)=C1Cl`, the GI50 was inactive: 38.1 µM.

For `CC(=O)NN1C(=O)C(Cc2ccccc2)c2ccccc21` (configuration not stated), the GI50 is inactive: > 100 µM.

Regarding `O=[N+]([O-])c1ccc([I+]c2ccccc2)cc1`, the GI50 is inactive: 8.34 µM.

In the case of `CC(C)/C(Cl)=N\OC(=O)Nc1ccc(S(N)(=O)=O)cc1`, the GI50 is inactive: 15.5 µM.

In the case of `O=C1C(NCCO)=C(N2CC2)C(=O)C(NCCO)=C1N1CC1`, the GI50 is inactive: 74.1 µM.

Consider `CN(C)c1n/c(=N/Cc2ccccn2)ss1`, for which the GI50 is inactive: > 10 µM.

For `O=S(=O)(Cc1ccccc1)SCc1ccccc1`, the GI50 was inactive: 45.7 µM.

On to `Clc1ccc(/C=C/c2nc(-c3ccc(Cl)cc3)cn3c2nc2ccccc23)cc1`, for which the GI50 is inactive: > 100 µM.

Regarding `C=CC(=O)NC(O)(C(=O)OCC)C(F)(F)F` (configuration not stated), the GI50 is inactive: > 100 µM.

As to `CCC1(C(=O)OC)CCc2c(OC)ccc(OC)c2C1=O` (configuration not stated), the GI50 was inactive: > 100 µM.

As for `Cn1ccnc1Oc1ccc(Cl)cc1`, the GI50 was inactive: 17.3 µM.

With `CC(Oc1ccccc1Cl)C(=O)NN1C(=O)CSC1c1ccccc1` (configuration not stated), the GI50 is inactive: > 100 µM.

`COC(=O)C1OC(O[C@H]2CC[C@]3(C)[C@H]4CC=C5[C@@H]6CC(C)(C)CC[C@]6(C(=O)OC6OCC(O)C(O)C6OC6OC(C)C(OC7OCC(OC8OCC(O)C(O)C8O)C(O)C7O)C(O)C6O)[C@H](O)C[C@@]5(C)[C@]4(C)CC[C@H]3C2(C)C)C(O)C(O)C1O` (some centres not stated): the GI50 was inactive: 3.38 µM.

Turning to `O=C1OC(c2ccccc2)=N/C1=C\c1ccc(Cl)cc1`, the GI50 is inactive: > 100 µM.

Consider `O=C(Nc1ccc(Cl)cc1)NS(=O)(=O)c1coc2cc(F)ccc2c1=O`, for which the GI50 is inactive: > 100 µM.

As for `CCN(CC)Cc1cc(Nc2ccnc3ccc4nn(C)nc4c23)ccc1O`, the GI50 is inactive: 13.7 µM.

Take `COCOCC[C@@H]1CC=CC(NC(=O)OCc2ccccc2)C1/C=C/C(=O)CCC1OCCO1` (some centres not stated): the GI50 was inactive: 70.8 µM.

In the case of `O=C(O)CNS(=O)(=O)c1ccc(NCc2ccccc2)cc1`, the GI50 is inactive: > 100 µM.
